pIC50: −log10 of the molar value. A lower IC50 marks a more sensitive line; where the fit passes the top or lowest dose, that dose stands as a limit. For AUC the same curve is integrated over the 256-fold range of doses and scaled to a fraction; it is 1 without any effect and falls as sensitivity rises. For part of these data: Any top dose called inferred comes from the curve model; the source does not state it. For part of these data: Drugs with an entry number were screened twice under separate entries, and the two screens often disagree.
Key:
Experiment in all cases: Viability of human cancer cell lines after 72 h of drug (GDSC screen)
SNX-2112 = compound: CC1(C)CC(=O)c2c(C(F)(F)F)nn(-c3ccc(C(N)=O)c(N[C@H]4CC[C@H](O)CC4)c3)c2C1 [SNX-2112]; conditions: top dose 2.56 µM
Description: (§1)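 Human cancer cell lines in 384-well plates, medium with 10% serum, drug for 72 h over a 256-fold dose range (nine 2-fold or five 4-fold steps up to the top dose). Adherent lines were fixed and stained with the nucleic acid dye Syto60, suspension lines read with resazurin; signal relative to control wells, capped at 0 and 100%. One two-parameter sigmoid per drug and line, fitted in a mixed model over all curves with the slope shared within a line.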

XMD13-2 = compound: O=C(NC1CC1)c1cccc(-c2ccc3c(NC(=O)C4CC4)n[nH]c3c2)c1 [XMD13-2]; conditions: top dose 10.24 µM; top dose inferred
Description: as §1

PF-562271 = compound: CN(c1ncccc1CNc1nc(Nc2ccc3c(c2)CC(=O)N3)ncc1C(F)(F)F)S(C)(=O)=O [PF-562271]; conditions: top dose 2.56 µM; top dose inferred
Description: as §1

Afatinib = compound: CN(C)C/C=C/C(=O)Nc1cc2c(Nc3ccc(F)c(Cl)c3)ncnc2cc1O[C@H]1CCOC1 [Afatinib]
Description: as §1

[1] = top dose 0.5 µM, screen: GDSC drug entry 1032
[2] = top dose 10 µM, screen: GDSC drug entry 1377, top dose inferred

Cell Line | AUC (SNX-2112) | pIC50 (SNX-2112) | AUC (XMD13-2) | pIC50 (XMD13-2) | AUC (PF-562271) | pIC50 (PF-562271) | AUC (Afatinib; [1]) | pIC50 (Afatinib; [1]) | AUC (Afatinib; [2]) | pIC50 (Afatinib; [2])
COR-L303 (small cell lung carcinoma, suspension) | 0.586 | 6.57 | 0.946 | < 4.99 | – | – | – | – | – | –
HCC-827 (lung adenocarcinoma, adherent) | 0.907 | < 5.59 | 0.967 | < 4.99 | – | – | – | – | – | –
VM-CUB-1 (bladder, adherent) | 0.76 | 6.06 | 0.967 | < 4.99 | 0.901 | < 5.59 | – | – | – | –
MM1S (myeloma, suspension) | – | – | – | – | – | – | 0.985 | < 6.30 | – | –
HCC1599 (breast, suspension) | 0.384 | 7.14 | 0.863 | < 4.99 | 0.939 | < 5.59 | – | – | – | –
NCI-H2030 (lung adenocarcinoma, adherent) | 0.463 | 6.90 | 0.924 | < 4.99 | – | – | – | – | 0.852 | 5.02
PC-3 (prostate, adherent) | 0.51 | 6.76 | 0.949 | < 4.99 | – | – | – | – | – | –
MCF7 (breast, adherent) | 0.986 | < 5.59 | 0.986 | < 4.99 | 0.888 | < 5.59 | – | – | – | –
SKM-1 (haematopoietic neoplasm, suspension) | – | – | – | – | – | – | – | – | 0.908 | < 5.00
NCI-H2171 (small cell lung carcinoma, suspension) | 0.695 | 6.29 | 0.896 | 5.01 | 0.945 | < 5.59 | – | – | – | –
K-562 (chronic myeloid leukaemia, suspension) | – | – | 0.883 | < 4.99 | – | – | – | – | – | –
MDA-MB-231 (breast, adherent) | 0.986 | < 5.59 | 0.976 | < 4.99 | – | – | 0.979 | < 6.30 | 0.964 | < 5.00
SNU-1040 (large intestine, adherent) | 0.837 | < 5.59 | 0.834 | 5.00 | – | – | – | – | 0.905 | < 5.00
TE-441-T (rhabdomyosarcoma, adherent) | 0.366 | 7.16 | 0.949 | < 4.99 | 0.936 | < 5.59 | – | – | – | –
NCI-H748 (small cell lung carcinoma, suspension) | 0.962 | < 5.59 | 0.9 | < 4.99 | 0.923 | < 5.59 | – | – | – | –
SIG-M5 (acute myeloid leukaemia, suspension) | 0.068 | 7.98 | 0.894 | 5.16 | 0.838 | 5.94 | – | – | – | –
CAL-148 (breast, suspension) | 0.386 | 7.10 | 0.911 | < 4.99 | 0.959 | < 5.59 | – | – | – | –
TALL-1 (T-cell lymphoblastic leukaemia, suspension) | 0.607 | 6.51 | 0.955 | < 4.99 | 0.97 | < 5.59 | – | – | – | –
HCC-33 (small cell lung carcinoma, adherent) | 0.802 | 5.89 | 0.894 | < 4.99 | 0.97 | < 5.59 | – | – | – | –
YMB-1-E (breast, adherent) | 0.836 | < 5.59 | 0.936 | < 4.99 | – | – | – | – | – | –

Source: the supplement of paper PMC4967469
